Measurements published in patent US20230220040A1 (KAHR MEDICAL, published 2023).

Columns and labels:
[1] = target: T1, CD27 on cells (HT1080-CD27 cells; human T cells) (human, UniProt P26842 20-260); test: flow cytometry, HT1080-CD27 cells incubated with His-tagged PD1-CD70 30 min on ice, detected with anti PD1-PE; curve 'Specific binding (PD1-CD70)'
T1 construct: whole, on cells; also called CD27 receptor; HT1080-27
T1 sequence (looked up): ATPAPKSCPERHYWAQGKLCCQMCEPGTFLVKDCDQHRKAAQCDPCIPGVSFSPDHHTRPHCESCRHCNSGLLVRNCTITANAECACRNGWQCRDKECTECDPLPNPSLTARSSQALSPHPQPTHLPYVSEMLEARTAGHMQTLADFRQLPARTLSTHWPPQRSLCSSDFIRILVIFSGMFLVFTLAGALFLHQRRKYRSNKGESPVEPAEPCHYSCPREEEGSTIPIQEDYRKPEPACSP
Procedure: (§1) The cells were incubated with different concentrations of His-tagged PD1-CD70 protein (SEQ ID NO: 5) for 30 minutes on ice, followed by immunostaining with anti-PD-1 antibody and flow cytometry analysis. GMFI values were used to create a binding curve graph with a GraphPad Prism software.
(§2) Methods—For expression assays, cells (0.5M cells/sample) were immune-stained with the indicated antibodies, followed by Flow cytometry analysis. For binding assays, cells were pre-incubated with human Fc blocker for 15 minutes on ice prior to incubation with different concentrations of His-tagged PD1-CD70 protein (SEQ ID NO: 5) for 30 minutes on ice, followed by immuno-staining against the “free” arm of the molecule, fixation and analysis by flow cytometry.

[2] = target: T2, 41BB on HT1080-41BB cells (UniProt Q07011 24-255); test: flow cytometry, HT1080 41BB+ cells (negative control) incubated with His-tagged PD1-CD70 30 min on ice, detected with anti PD1-PE
T2 construct: whole, on cells; also called 4-1BB (CD137)
T2 sequence (Q07011 24-255 limits assumed): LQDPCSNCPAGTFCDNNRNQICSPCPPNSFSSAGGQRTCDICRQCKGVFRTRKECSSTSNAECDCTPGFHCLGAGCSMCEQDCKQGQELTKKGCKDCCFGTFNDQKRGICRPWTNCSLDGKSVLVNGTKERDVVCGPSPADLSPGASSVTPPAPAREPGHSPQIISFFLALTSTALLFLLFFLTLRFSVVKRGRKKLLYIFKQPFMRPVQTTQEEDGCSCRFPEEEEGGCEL
Procedure: as §1, §2

[3] = target: T3, PDL1 on DLD1-PDL1 cells (human, UniProt Q9NZQ7); test: flow cytometry, DLD1-PDL1+ cells incubated with His-tagged PD1-CD70 30 min on ice, detected with anti CD70-PE; curve 'Specific binding (PD1-CD70) to DLD1-PDL1+ cells'
T3 construct: whole, on cells
T3 sequence (Q9NZQ7 19-290): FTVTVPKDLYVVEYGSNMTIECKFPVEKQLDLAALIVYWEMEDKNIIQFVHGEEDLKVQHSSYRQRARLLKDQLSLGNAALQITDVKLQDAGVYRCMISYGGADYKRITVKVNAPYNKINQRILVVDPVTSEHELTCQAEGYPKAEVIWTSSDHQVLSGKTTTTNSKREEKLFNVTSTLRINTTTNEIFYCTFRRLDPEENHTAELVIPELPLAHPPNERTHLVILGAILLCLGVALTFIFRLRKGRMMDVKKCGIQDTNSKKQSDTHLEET
Procedure: The cells were incubated with different concentrations of His-tagged PD1-CD70 protein (SEQ ID NO: 5) for 30 minutes on ice, followed by immunostaining with anti-CD70 antibody and flow cytometry analysis. GMFI values were used to create a binding curve graph with a GraphPad Prism software.
as §2

B1: His-tagged PD1-CD70 fusion protein (SEQ ID NO: 5) (other)
chain: HHHHHHPGWF[no letters for about 150 residues]GQRFAQAQQQLPLESLGWDVAELQLNHTGPQQDPRLYWQGGPALGRSFLHGPELDKGQLRIHRDGIYMVHIQVTLAICSSTTASRHHPTTLAVGICSPASRSISLLRLSFHQGCTIASQRLTPLARGDTLCTNLTGTLLPSRNTDETFFGVQWVRP
notes: Produced in Expi293F cells and purified on a HisTrap column; Glycosylated; also called His-tag PD1-CD70 fusion protein; His-PD1-CD70
- EC50 (read off the curve) [1]: ~200 nM
- binding result [2]: no binding (tested: 50 ug/ml)
- EC50 (read off the curve) [3]: ~7 nM
